Among all 50,000 compounds or so, about 800 (1.6%) showed an effect of 50% or more. This is one part of the list.

The target in the experiment is Bcl-2-like protein 10 (Homo sapiens) (UniProt Q9HD36). In words: TR3 peptide-Bcl-B binding displacers, biochemical primary FP assay, phenotype converters (AID 1240).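 Note: 0% = Bcl-B with tracer peptide and DMSO and 100% = tracer peptide lacking Bcl-B.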 The note with it: GST-Bcl-B / FITC-TR3 peptide fluorescence polarization; stronger effect = higher value; compound at 3.75 mg/L. (Fluorescence polarisation rises when a labelled molecule tumbles more slowly, as on binding a larger partner.)
UniProt Q9HD36, sequence (Q9HD36 whole entry, looked up): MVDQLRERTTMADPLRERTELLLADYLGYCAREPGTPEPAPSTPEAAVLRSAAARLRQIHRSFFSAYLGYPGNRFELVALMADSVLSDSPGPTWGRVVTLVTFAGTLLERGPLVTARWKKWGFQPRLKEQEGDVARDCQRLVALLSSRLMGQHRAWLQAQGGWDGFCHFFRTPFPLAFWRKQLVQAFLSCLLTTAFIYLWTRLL
Turning to `COc1ccc2c(c1)N(C(=O)CN1C(=O)c3ccccc3C1=O)C(C)(C)c1ssc(=S)c1-2`, the displacement is -2.3%.
Consider `Cc1cc(N2C(=O)NC(=O)/C(=C\c3ccco3)C2=O)ccc1Br`, for which the displacement turned out to be 74%.
With `CCc1nnc(NC(=O)c2cc([N+](=O)[O-])ccc2Cl)s1`, the displacement was found to be 6.3%.
For `COc1ccccc1NC(=O)c1ccc(OC)c([N+](=O)[O-])c1`, the displacement was 4.7%.
Turning to `COc1cccc(OCCOc2ccc(/C=C3\C(=O)NN(c4ccccc4)C3=O)cc2OC)c1`, the displacement was -0.2%.
The same measure for `COc1ccc(S(=O)(=O)N2CCN(Cc3ccccc3Br)CC2)cc1`: 0.7%.
As for `Cc1ccc(C(=O)N/N=C/c2ccc(-c3ccc(Br)cc3[N+](=O)[O-])o2)o1`, the displacement is -6.4%.
The same measure for `S=C(Sc1nc(Nc2ccccc2)nc(Nc2ccccc2)n1)N1CCOCC1`: 3.1%; for `CCc1ccc(NC(=O)C(=O)NCC(O)c2ccccc2)cc1` (stereo not drawn): 5.6%; for `COc1ccc(C(=O)Nc2ccc(Cl)cc2C)cc1OC`: 13.6%.
In the case of `CCCCOC(=O)c1cccc(NC(=O)COc2cc(C)cc(C)c2)c1`, the displacement is -3.4%.
For the molecule `COc1ccc(-c2ccc(C=C3C(=O)c4ccccc4C3=O)o2)c([N+](=O)[O-])c1`, the displacement stood at 20.7%.
On to `O=C1N=C(N2CCN(C3=NC(=O)/C(=C\c4ccc(O)cc4)S3)CC2)S/C1=C\c1ccc(O)cc1`, for which the displacement is -12.2%.
With `CCCCOC(=O)c1ccc(NC(=O)Nc2ccccc2)cc1`, the displacement is -3.6%.
`O=C(/C=C/c1ccc(F)cc1)NC(=S)NCc1ccco1`: the displacement was determined as 18.2%.
For `CC(=O)NC(NC(C)=O)c1cccc([N+](=O)[O-])c1`, the displacement was 2.8%.
For the molecule `CC(C)(C)C(=O)Nc1ccc(C(=O)Nc2ccc(NC(=O)c3ccc(NC(=O)C(C)(C)C)cc3)c(Cl)c2)cc1`, the displacement came to 15.8%.
With `Nc1nnc(CCS(=O)(=O)c2ccc3ccccc3c2)s1`, the displacement worked out at 0.1%.
With `COc1ccc(/C=C/C(=O)c2c(O)c(OC)c3occc3c2OC)cc1`, the displacement turned out to be 9%.
Turning to `COc1ccc(C(=O)ON=C2c3ccccc3-c3ccccc32)cc1[N+](=O)[O-]`, the displacement is 12.2%.
On to `COc1ccc(C(NC(=O)/C=C\c2ccco2)c2ccc(OC)cc2)cc1`, for which the displacement is -11.6%.
The same measure for `O=C1C2C3C=CC(C2C(=O)N1Cc1cccnc1)C1C(=O)N(Cc2cccnc2)C(=O)C31` (stereo not drawn): -6.1%; for `COc1ccc(CN2CCN(C3CCCCC3)CC2)c(OC)c1OC`: 0.6%.
The same measure for `COc1ccc(-c2cc(=O)n3[nH]c(-c4ccc(C)cc4)cc3n2)cc1`: 0.2%; for `Cc1ccc(OCC(=O)Nc2ccc(I)cc2Cl)cc1`: 11.2%.
For the molecule `CCNC(=O)/C(C#N)=C/c1ccc(Cl)cc1Cl`, the displacement is -6%.
Consider `C=CCN1C(=O)/C(=C\c2ccc(Br)cc2)C(=O)NC1=S`, for which the displacement was 12.4%.
The same measure for `CCOc1ccccc1NC(=O)CN(c1cccc([N+](=O)[O-])c1)S(=O)(=O)c1ccccc1`: 10.6%; for `Cc1ccnc(N2C(=O)C3C4c5ccccc5C(c5ccccc54)C3C2=O)c1` (stereo not drawn): 5.1%; for `CCOc1ccc(OCC)c(C(=O)O)c1`: -12.7%.
With `COc1cccc(NC(=O)c2ccc(C)c([N+](=O)[O-])c2)c1`, the displacement is 7.1%.
In the case of `O=C(c1ccco1)N1CCN(Cc2ccc(Cl)cc2)CC1`, the displacement was -9.7%.
For `Cc1sc(NC(=O)c2cccnc2)nc1-c1ccc(Br)cc1`, the displacement stood at 0.7%.
Take `COC(=O)CSc1nc2sc3c(c2c(=O)n1-c1ccc(OC)cc1)CC(C)(C)OC3`: the displacement was -4.4%.
`COc1ccc(S(=O)(=O)N(CC(=O)Nc2cc(Cl)ccc2OC)Cc2ccccc2)cc1`: the displacement was -0.3%.
The same measure for `Cc1c(C(=O)Nc2cc(C(F)(F)F)cc(C(F)(F)F)c2)oc2ccccc12`: -1.2%.
The same measure for `COC(=O)C1=C(C)N(c2ccc(C)cc2)/C(=C\c2ccc(OCC(=O)Nc3ccccc3Cl)cc2)C1=O`: 7.6%.
The same measure for `Cc1cc(/C=C2/SC(=S)N(CC(=O)O)C2=O)c(C)n1-c1ccc([N+](=O)[O-])cc1`: 6.3%.
With `COc1ccc(C(=O)O/N=C(\N)c2cccc([N+](=O)[O-])c2)cc1`, the displacement was -2.8%.
The same measure for `CCOC(=O)N1CCN(c2ccc3nnnn3n2)CC1`: 10.5%.
For the molecule `Cc1ccc(-c2csc(NC(=O)c3ccccc3F)c2C(=O)O)cc1`, the displacement is -6.7%.
The same measure for `COc1ccc(CC(=O)NCC2(c3ccccc3)CCCC2)cc1OC`: -3.4%; for `CC(C)(C)C(=O)CC(=O)c1ccc(Br)cc1`: 15.8%; for `CCn1c2ccccc2c2cc(/C=N/Nc3ccc([N+](=O)[O-])cc3)ccc21`: -7.5%.
Turning to `O=[N+]([O-])c1ccc(N2CCN(S(=O)(=O)Cc3ccccc3)CC2)cc1NC1CC1`, the displacement turned out to be 9.4%.
As to `COc1cccc(/C=C/C(=O)c2ccc(F)cc2)c1OC`, the displacement is -1.5%.
`Cc1cc(C)nc(NC(=O)C23CC4CC(CC(C4)C2)C3)c1`: the displacement turned out to be 2.4%.
In the case of `CCOC(=O)NC(NC(=S)Nc1ccc(C(C)=O)cc1)C(Cl)(Cl)Cl` (stereo not drawn), the displacement is -1.1%.
As for `COC(=O)C(C)NC(=O)C(c1ccccc1)c1ccccc1` (stereo not drawn), the displacement amounted to 10.9%.
As for `Cc1ccc(C(=O)Nc2c(-c3ccccc3)nc3cc(C)ccn23)cc1`, the displacement turned out to be 8.5%.
The same measure for `CCCn1c(/C=C(/OC(=O)c2ccccc2)c2ccccc2)nc2ccccc21`: -6%; for `O=C(Cc1cccc2ccccc12)NCC1(c2ccccc2)CCOCC1`: -3.1%.
Take `CCOC(=O)c1csc(NC(=O)c2ccc([N+](=O)[O-])o2)n1`: the displacement was -8.8%.
With `O=C(NN=C1CCC(=NNC(=O)c2ccccc2Cl)CC1)c1ccccc1Cl`, the displacement came to 6.7%.
In the case of `COc1ccc(NC(=O)c2ccccc2NC(=O)c2ccco2)cc1`, the displacement was -3.6%.
The same measure for `CN(C)c1cccc(NC(=O)c2cc3ccccc3o2)c1`: 12.4%.
The same measure for `COCCOC(=O)c1c(C)oc2ccc(OCC(N)=O)cc12`: 7.8%; for `CCN(CC)c1ccc(/C=N/NC(=O)CSc2nc3ccccc3[nH]2)c(O)c1`: -12.1%; for `CCOc1cc(/C=N/NC(=O)CSc2nc(C)cc(C)n2)ccc1OCc1cccc(Cl)c1`: -7.7%.
For `O=C(NCCNC(=O)c1cccnc1)c1cccnc1`, the displacement stood at 0%.
Take `CC(C)C(=O)NCCNc1ccc([N+](=O)[O-])cc1Cl`: the displacement is -3.3%.
For `CCOc1ccc(-c2cc(C(=O)Nc3ccncc3)c3ccccc3n2)cc1`, the displacement worked out at 5.9%.
With `Cc1cc(C)c2nc(NC(=O)c3ccc(F)c(F)c3)sc2c1`, the displacement is -0.9%.
With `CCc1[nH]nc(C(=O)N/N=C/c2ccccn2)c1C`, the displacement is -14.5%.
On to `CCn1nnnc1-c1ccc(OC)c(S(=O)(=O)Nc2ccc(C)c(C)c2)c1`, for which the displacement worked out at 6.6%.
The same measure for `O=C(c1ccc(S(=O)(=O)N2CCCC2)cc1)N1CCN(c2ccccc2)CC1`: 11.3%; for `Cc1cc(NC(=O)c2ccc(Cl)cc2)ccc1NC(=O)c1ccccc1`: -6.4%.
As to `CN(C)N1C(=O)c2ccc3c4c(ccc(c24)C1=O)CC3`, the displacement was determined as 6.4%.
As to `Cc1ccc(SCc2cc(=O)n(-c3nc4ccccc4s3)[nH]2)cc1`, the displacement amounted to 8.6%.
The same measure for `COc1cc(OC)c(OC)cc1CN1CCN(Cc2cccnc2)CC1`: -8.7%; for `O=C(Nc1ccccc1OC(F)(F)C(F)C(F)(F)F)C(c1ccccc1)c1ccccc1` (stereo not drawn): -13.8%; for `Cc1ccc(-c2nc3ccccc3c(C(=O)O)c2C)s1`: 0%.
For the molecule `COc1ccc(Cl)cc1C(=O)Nc1nc(-c2ccc(C)cc2C)cs1`, the displacement is -1.3%.
With `O=C(Nc1ccccc1)c1ccccc1OCC(O)CN1C(=O)c2ccccc2S1(=O)=O` (stereo not drawn), the displacement was -11%.
On to `O=C(Nc1nccs1)c1ccc2ccccc2c1`, for which the displacement was 14.3%.
In the case of `c1ccc(C2NCCn3cccc32)cc1` (stereo not drawn), the displacement worked out at 5%.
The same measure for `Cc1cc(C)cc(NC(=O)C2CCCCC2)c1`: -10.4%; for `Cc1oc2cc(Br)c(OCC(=O)C(C)(C)C)cc2c1C(=O)OC(C)C`: 18.1%; for `CN1C(=O)/C(=C/c2ccc(N3CCCC3)cc2)C(=O)N(c2ccccc2)C1=S`: -7.3%.
Turning to `CCC1=NN(C(=O)c2ccc(OC)cc2)C(O)(c2ccncc2)C1` (stereo not drawn), the displacement was -22.8%.
On to `COC(=O)CN(c1cccc(Cl)c1)S(=O)(=O)c1ccccc1`, for which the displacement turned out to be 2.5%.
Turning to `O=C(CCNC(=O)/C(=C\c1ccccc1)NC(=O)c1ccco1)OCc1ccccc1`, the displacement was determined as 0.4%.
Regarding `Cc1ccc(NC(=O)C2CC(=O)N(c3ccccc3C)C2)cc1` (stereo not drawn), the displacement was -34.1%.
Consider `CCOC(=O)CCc1c(C)nc2cc(-c3ccc(I)cc3)[nH]n2c1=O`, for which the displacement was -5.3%.
Consider `COc1cc(/C=N/NC(N)=O)ccc1OCC(=O)N1CCCCC1`, for which the displacement is -4.4%.
On to `O=C(N/N=C/c1cc(Br)cc(I)c1O)C(O)c1ccccc1` (stereo not drawn), for which the displacement was 1.2%.
For `Cc1ccnc(NC(=O)COc2cc(C)c(Cl)c(C)c2)c1`, the displacement turned out to be 6.8%.
Consider `CCOc1cc(/C=C2/SC(=S)N(C)C2=O)ccc1OCc1ccccc1Cl`, for which the displacement was determined as 2.3%.
The same measure for `C=CCn1c(-c2cccc(Br)c2)n[nH]c1=S`: 12%; for `O=C1NC(=Nc2ccc(F)cc2)SC1Cc1cccc(Cl)c1` (stereo not drawn): -2.1%; for `Cn1/c(=N/N=C/c2c(F)cccc2Cl)sc2ccccc21`: -5.8%.
The same measure for `CSc1nc2ccc(NC(=O)c3ccc([N+](=O)[O-])o3)cc2s1`: 11.9%; for `Cc1ccc(SCCNC(=O)c2ccccc2)cc1`: 4.5%.
In the case of `Cc1cc(C)n2ncc(-c3ccccc3)c2n1`, the displacement is -8.1%.
For `Cc1cccc(N/C(N)=N/c2nc(C(F)(F)F)cc(=O)[nH]2)c1C`, the displacement is -2%.
As to `Brc1ccccc1CN1CCN(C2CCN(Cc3ccccc3)CC2)CC1`, the displacement was 0.6%.
For `O=C(NC(c1ccccc1Cl)c1c(O)ccc2ccccc12)c1ccccc1` (stereo not drawn), the displacement was determined as 33.2%.
On to `O=C(CN1C(=O)c2ccc([N+](=O)[O-])cc2C1=O)Nc1ccccc1C(=O)O`, for which the displacement is 13.6%.
On to `COCCOC(=O)C1=C(C)N=c2s/c(=C/c3ccccc3OC)c(=O)n2C1c1ccc(OC)cc1` (stereo not drawn), for which the displacement is -6.5%.
The same measure for `CCN(CC)c1ccc(/C=N\N2CCN(c3ccc(Cl)cc3)CC2)cc1`: 6.6%; for `COc1cc2c(cc1OC)C(c1ccccc1)NC(C)(C)C2` (stereo not drawn): 9%; for `COc1ccc2nc(NC(=O)c3ccc(C)c(C)c3)sc2c1`: 1.7%.
The same measure for `O=[N+]([O-])c1cccc(CN2CCN(S(=O)(=O)c3ccc(Cl)cc3)CC2)c1`: 6.2%.
The same measure for `CCN1C(=O)CC(NCCc2ccc(S(N)(=O)=O)cc2)C1=O` (stereo not drawn): -10.2%; for `N=C1S/C(=C\c2ccc(-c3cccc(C(=O)O)c3)o2)C(=O)N1c1ccc2c(c1)OCO2`: 36%; for `COc1ccc(C(=O)NNC(=O)c2cc(OC)cc(OC)c2)cc1`: 0.7%.
Regarding `COc1cc(/C=N\Nc2cc(N(C)C)nc(N(C)C)n2)ccc1O`, the displacement was found to be 10.6%.
With `Cc1ccc(-c2nc3cc(NC(=O)COc4ccccc4C)ccc3o2)cc1`, the displacement is -6.6%.

These data come from PubChem BioAssay AID1240 (Sanford-Burnham Center for Chemical Genomics, 2008).
